# In the RNAGym collection of RNA variant scans (doi:10.1073/pnas.2313332121):
# Variants at the background level are over-represented here.
# B1: TPR 5TU (parent)
# chain: GGAUCUUCUCGAUCUAACAAAAAAGACAAAUCUGCCACAAAGCUUGAGAGCAUCUUCGGAUGCAGAGGCGGCAGCCUUCGGUGGCGCGAUAGCGCCAACGUUCUCAACUAUGACACGCAAAACGCGUGCUCCGUUGAAUGGAGUUUAUCAUG
# Variants of: B1
# Experiment: polymerase ribozyme fitness, log enrichment relative to wild type (log ratio); higher = more active; in vitro selection for triplet polymerase activity
# How it was run: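 Genotype fitness is the logarithm of its enrichment divided by wild-type enrichment, using inverse-variance-weighted averages of replicates. That logarithm is base 2. Enrichment was measured by Illumina sequencing of input and output libraries from one triplicate in vitro selection round, with frozen incubation at −7 °C, on PCR-built, transcribed mutant libraries of each subunit of a heterodimeric triplet polymerase ribozyme, retaining genotypes with ≥10 input reads and ≥1 read per output.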
row,Variant,polymerase ribozyme fitness (log ratio)
1,C32A A37G G74A,≤ -4.2
2,C32A A37U,≤ -4.2
3,C32A A40G A47G C72G,≤ -4.2
4,C32A A40U G48C G88A U134A,≤ -4.2
5,C32A A40U G62U C85G U146A,≤ -4.2
6,C32A A41C A60G C85A U144C,≤ -4.2
7,C32A A41C C54U G94A A115G G133A,≤ -4.2
8,C32A A41C G83C G94A A110U U127G,≤ -4.2
9,C32A A47U C114U G126U,≤ -4.2
10,C32A A113U,≤ -4.2
11,C32A C35U C36G A60C A110G,≤ -4.2
12,C32A C35U G68U G80A A91U C96U A138U,≤ -4.2
13,C32A C36A A60C U139C,≤ -4.2
14,C32A C36G A47G C72G A89G A91G,≤ -4.2
15,C32A C38A G70A C95U,≤ -4.2
16,C32A C38U G70A U78A A91U C96G,≤ -4.2
17,C32A C38U U55A G94A G126C,-3.92
18,C32A C54U C79G G84U,≤ -4.2
19,C32A C54U C93A A110G A137G G140C,-4.17
20,C32A C75A C87A A110G A119C,≤ -4.2
21,C32A C79A A122G U135C,≤ -4.2
22,C32A C85G,≤ -4.2
23,C32A C85G C103G C114A,≤ -4.2
24,C32A C87A A115C,≤ -4.2

row,Variant,polymerase ribozyme fitness (log ratio)
1,C32A C93U G140A,≤ -4.2
2,C32A G34U U55G G94C U127C,≤ -4.2
3,C32A G34U U55G G94C U127C G143A A150C,≤ -4.2
4,C32A G42C G62A C95A,≤ -4.2
5,C32A G42U G81C G88A C99U,≤ -4.2
6,C32A G42U U82C C95U U102G C108G G140U U146A,≤ -4.2
7,C32A G46A C93A A98C C99U A107C G152U,≤ -4.2
8,C32A G48A G50A U78A A113U,≤ -4.2
9,C32A G48U A49C U55G G58A A119C C149U,≤ -4.2
10,C32A G50A G94U A107C G143A,≤ -4.2
11,C32A G59C C87A C118G,≤ -4.2
12,C32A G62A C63U C114G C116U A121C,≤ -4.2
13,C32A G62C C69U C87U U148A G152U,≤ -4.2
14,C32A G65A G88A C118U A120C A142G U144C,≤ -4.2
15,C32A G70A,≤ -4.2
16,C32A G71C A89U,≤ -4.2
17,C32A G71C G92A A142G,≤ -4.2
18,C32A G117U U148A,≤ -4.2
19,C32A U33G A47C,≤ -4.2
20,C32A U44G G58C U146G,≤ -4.2
21,C32A U55A C69A,≤ -4.2
22,C32A U56A C85U A113C,≤ -4.2
23,C32A U61G C76A C96U,≤ -4.2
24,C32A U102G,≤ -4.2

row,Variant,polymerase ribozyme fitness (log ratio)
1,C32A U146C,≤ -4.2
2,C32G A37C G48A U56G G80A G84U A97U,≤ -4.2
3,C32G A39C A41C A52U G94C C116G,≤ -4.2
4,C32G A39G A73G A110G,≤ -4.2
5,C32G A40G A73G A91C,≤ -4.2
6,C32G A40U C63U G81C A113G C125U U135C U148A,≤ -4.2
7,C32G A40U U45G G84A C95G G141A,≤ -4.2
8,C32G A41C C75U,≤ -4.2
9,C32G A41C G65A A66C,≤ -4.2
10,C32G A41U U82A G83A C95G C96G C118A G128C U130C G143C,≤ -4.2
11,C32G A47C C85U C105G A110G U144C,≤ -4.2
12,C32G A49C A52C G143U,≤ -4.2
13,C32G A49G C76A U82C U104G,≤ -4.2
14,C32G A49U C57G C63A C93G,≤ -4.2
15,C32G A52C G71A C87A G92U C99A G133U U139A,≤ -4.2
16,C32G C35A A40U C105U,≤ -4.2
17,C32G C35G C76U U78C A89U C103G,≤ -4.2
18,C32G C36U C54A G83U G128U,≤ -4.2
19,C32G C36U G59C C76A G83C C108G A138U U145C,≤ -4.2
20,C32G C36U U53A C54G A91U A106C G136A,≤ -4.2
21,C32G C38A C54U C87G C93A A106C G117C,≤ -4.2
22,C32G C38A C79G G83U G88U U102C U104A U109C C131A G136A,≤ -4.2
23,C32G C38A C79G G126U U135C U148A U151G,≤ -4.2
24,C32G C38G C85U A97C C132U,≤ -4.2

row,Variant,polymerase ribozyme fitness (log ratio)
1,C32G C54A G59C C93U C105U,≤ -4.2
2,C32G C54A G62A G84U C116U G133U,≤ -4.2
3,C32G C57A G58C U77G C123U,≤ -4.2
4,C32G C57A U82C G88U C105U,≤ -4.2
5,C32G C57U G62C C85U G88U A98U C105U A119G,≤ -4.2
6,C32G C69A A89U U134G,≤ -4.2
7,C32G C76G C132G,≤ -4.2
8,C32G C76G G84C C118U C132G G133C,≤ -4.2
9,C32G C85U A110G G126C,≤ -4.2
10,C32G C87A A115C,≤ -4.2
11,C32G C87A U111A A142U,≤ -4.2
12,C32G C93A C103G C118A U127G,≤ -4.2
13,C32G C93G A107G,≤ -4.2
14,C32G G34C A37C C54A U78G C87G C99U A110U C114G,≤ -4.2
15,C32G G34C C57U C96G G112A,≤ -4.2
16,C32G G34U U55A U56A G80A U134A,≤ -4.2
17,C32G G42A G59A C79U A115G C132U,≤ -4.2
18,C32G G42U U55A U61A C85A C95A A107U,≤ -4.2
19,C32G G46U A47G U53G C75G C108G A110C U145G,≤ -4.2
20,C32G G48C C57G G80U C85U G140U,≤ -4.2
21,C32G G50A C57A G74A U101G A119U A137G G140C,≤ -4.2
22,C32G G50A G58C G86U C103U A121G C131G G140U,≤ -4.2
23,C32G G50A U61A G62C G71A A91U G94C A138C,≤ -4.2
24,C32G G50C C51U G88A A110G,-4.19

row,Variant,polymerase ribozyme fitness (log ratio)
1,C32G G50U C51G C96A A106U,≤ -4.2
2,C32G G50U U104C A107G G126C U146G,≤ -4.2
3,C32G G59C A66G U102A,≤ -4.2
4,C32G G59C C96A U144A,≤ -4.2
5,C32G G71U C87G C114U U146G,≤ -4.2
6,C32G G81A A147U C149U,≤ -4.2
7,C32G U33A A122G,≤ -4.2
8,C32G U33A C43G G81U G84A A142G,≤ -4.2
9,C32G U33G A47C U56A G83U G92C C131A,≤ -4.2
10,C32G U44A C76A C85U C93A C103U A115U C125U,≤ -4.2
11,C32G U45A C54A C75U G88U A142U,≤ -4.2
12,C32G U45G U55A G71U G94A C96G C149A,≤ -4.2
13,C32G U53A C87A A91C,≤ -4.2
14,C32G U53A U56G C57U A97U,≤ -4.2
15,C32G U53C C76A,-4.09
16,C32G U55A C76U A89G C95U C96G,≤ -4.2
17,C32G U55A C79A C116G C149A,≤ -4.2
18,C32G U55A C96A A119G,≤ -4.2
19,C32G U55A G92U C149U,≤ -4.2
20,C32G U55A U77G A91G C125A U139C A147U U148G U151A,≤ -4.2
21,C32G U56A C57A C114G,-4.19
22,C32G U56A U104A G126C U148A,≤ -4.2
23,C32G U56A U135G U144A,≤ -4.2
24,C32G U56G G68C,≤ -4.2

row,Variant,polymerase ribozyme fitness (log ratio)
1,C32G U77A C93U C114U G124C,≤ -4.2
2,C32G U82G,≤ -4.2
3,C32U A37G G59A A91C C108G,≤ -4.2
4,C32U A37U C93A A97G U144G,≤ -4.2
5,C32U A39G A41C U56C C79G,≤ -4.2
6,C32U A39G A41U C54A G81A C118U,≤ -4.2
7,C32U A39G C54U G59A C96A,≤ -4.2
8,C32U A39U A40U U44A C125A,≤ -4.2
9,C32U A39U U61A C118G,≤ -4.2
10,C32U A40U C125G,≤ -4.2
11,C32U A41U A91C C125G,≤ -4.2
12,C32U A47C C85A C93U C99U C114G G152C,≤ -4.2
13,C32U A49C U82C C96A A98C G117U A142G,≤ -4.2
14,C32U A49U C51U C75U U102C U146G,≤ -4.2
15,C32U A49U G68A C87U C105G A137U,≤ -4.2
16,C32U A52C U53A C75A C85G C96U U111G G126A,≤ -4.2
17,C32U A52C U55G C57A,-3.11
18,C32U A52C U55G C118U,≤ -4.2
19,C32U A52G U55G G94C,-3.43
20,C32U A60U A73U C93U,≤ -4.2
21,C32U A60U G84U C108U U109C,≤ -4.2
22,C32U A66C U104A U109G,≤ -4.2
23,C32U A91G C93U G140C A142G,≤ -4.2
24,C32U C35A G88A A91G C93G C103U G126A U151A,≤ -4.2

row,Variant,polymerase ribozyme fitness (log ratio)
1,C32U C35G C85A U90A A107G U151G,≤ -4.2
2,C32U C36A C87G G124A,≤ -4.2
3,C32U C36U U55A G68U U77G G143U U144C,≤ -4.2
4,C32U C38U C79G G84U C118U C149G,≤ -4.2
5,C32U C38U C87G C96U A138G,≤ -4.2
6,C32U C43A C85G G86C U90G C103U A110G A121U C132G U135G G136A,≤ -4.2
7,C32U C43G U55A C76A C85U G92U C132U,≤ -4.2
8,C32U C54A G88C C125G G126U,≤ -4.2
9,C32U C54G U90G G136U,≤ -4.2
10,C32U C54U G88U C116U,≤ -4.2
11,C32U C63A A66C C93U C118G U135A,≤ -4.2
12,C32U C69A C93A C96A C99U A147U,≤ -4.2
13,C32U C79A C131U U134C U144C,≤ -4.2
14,C32U C85G,≤ -4.2
15,C32U C87A,≤ -4.2
16,C32U C87G A142U,≤ -4.2
17,C32U G42C G86C,≤ -4.2
18,C32U G46U C103G U104G A107C G140C,≤ -4.2
19,C32U G48A G84C G141A,≤ -4.2
20,C32U G48A G84C U90A,≤ -4.2
21,C32U G48C C63A A64C G81A G100A A106G,≤ -4.2
22,C32U G50U G58A U61G C93G C103G A121U C129A G136A G140A U151G,≤ -4.2
23,C32U G58C C63A,-3.84
